# Source: PubChem BioAssay AID1460 (National Center for Advancing Translational Sciences (NCATS), 2008)
# In all, about 270,000 compounds went through this assay and about 5,800 (2.1%) were called active. The inconclusive results got no clear call from the source; some entries with a clear call stand among them for comparison. Calls follow the shape of the dose curve; as a rule, active = well fitted inhibition curve with a large enough effect; inconclusive = small, poorly fitted or top-dose-only effect; inactive = flat fitted curve, though single readings scatter. Potencies beside an inconclusive call are fits to weak or partial responses and may not hold up.
# Biological target: Microtubule-associated protein tau (Homo sapiens) (UniProt P10636)
# Test: qHTS for Inhibitors of Tau Fibril Formation, Thioflavin T Binding; also: nearly all actives have a fitted effect of over 55% in size
# Details: recombinant tau K18 P301L (four-repeat tau fragment), heparin-induced fibrillization, ThT fluorescence; series mostly up to 57.4 µM
# In short: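 Recombinant human tau K18 fragment […] carrying P301L, 15 uM unlabeled plus 0.24 uM Alexa 594-labeled, was fibrillized with 20 uM heparin in 100 mM sodium acetate pH 7 for 6 hr at 37 C; 30 uM ThT fluorescence read after 1 hr.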
# Potency is read from the fitted curve at half-maximal effect; tags tell the direction and shape of the fitted curve.
# Sequence of UniProt P10636 (P10636 whole entry, looked up): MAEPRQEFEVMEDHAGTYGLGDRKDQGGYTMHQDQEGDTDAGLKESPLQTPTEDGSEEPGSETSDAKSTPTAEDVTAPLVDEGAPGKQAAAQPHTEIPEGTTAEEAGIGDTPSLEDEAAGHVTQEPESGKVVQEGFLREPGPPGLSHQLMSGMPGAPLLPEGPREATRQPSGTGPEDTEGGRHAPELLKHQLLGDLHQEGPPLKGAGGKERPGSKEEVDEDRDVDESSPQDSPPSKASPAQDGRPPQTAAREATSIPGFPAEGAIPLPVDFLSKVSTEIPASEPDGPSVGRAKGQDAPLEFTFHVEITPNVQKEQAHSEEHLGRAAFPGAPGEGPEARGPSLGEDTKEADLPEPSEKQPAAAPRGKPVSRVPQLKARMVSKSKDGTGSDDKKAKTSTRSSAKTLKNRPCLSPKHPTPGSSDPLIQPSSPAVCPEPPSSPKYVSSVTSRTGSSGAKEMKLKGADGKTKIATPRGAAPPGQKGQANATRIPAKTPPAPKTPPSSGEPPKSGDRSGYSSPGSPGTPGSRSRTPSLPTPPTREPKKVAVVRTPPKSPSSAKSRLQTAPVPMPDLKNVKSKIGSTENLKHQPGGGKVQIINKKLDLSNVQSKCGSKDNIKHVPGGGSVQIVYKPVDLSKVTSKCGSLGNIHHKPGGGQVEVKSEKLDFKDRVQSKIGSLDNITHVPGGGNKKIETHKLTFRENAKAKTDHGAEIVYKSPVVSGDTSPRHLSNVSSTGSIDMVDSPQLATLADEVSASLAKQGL
row,Compound,Potency
1,CCCC(=O)Nc1ccc(Cl)c(NC(=O)c2ccc([N+](=O)[O-])cc2Cl)c1,"inconclusive: 12.6 µM [inhibitor, partial curve]"
2,COc1ccc(OCC(=O)N/N=C(\C)c2ccc(OC)cc2)cc1,"inconclusive: 14.1 µM [inhibitor, partial curve]"
3,COC1CC(O[C@H]2/C(C)=C/CC3CC(C[C@]4(CCC(C)C(C5CCCCC5)O4)O3)OC(=O)[C@H]3C=C(C)/C(=N/O)C4OC/C(=C\C=C\[C@@H]2C)[C@@]43O)OC(C)C1O (stereo partly drawn),inactive
4,COC(=O)c1ccc(Oc2cc(C)nc(SC)n2)cc1,inactive
5,CCCOc1ccc(N2C(=O)CC(N(CCc3ccc(OC)cc3)C(=O)c3ccccc3)C2=O)cc1 (stereo not drawn),"inconclusive: 25.1 µM [inhibitor, partial curve]"
6,Brc1ccc2nc(-c3cccs3)c(NCC3CCCO3)n2c1 (stereo not drawn),"inconclusive: 35.5 µM [inhibitor, single point]"
7,O=C(c1cccs1)N(Cc1nc2sc3c(c2c(=O)[nH]1)CCCC3)C1CCCC1,inactive
8,CCN(C(=S)NC(=O)C1CCCC1)C1CCCCC1,inactive
9,COc1ccc(CCNc2c(N)n(Cc3ccccc3)c(=O)[nH]c2=O)cc1OC,"inconclusive: 35.5 µM [inhibitor, single point]"
10,O=C(c1ccccc1)c1cc(F)c(N2CCOCC2)cc1Cl,inactive
11,O=C(CCCCCNc1nc(=S)[nH]c2ccccc12)NCCc1c[nH]c2ccccc12,"inconclusive: 8.91 µM [inhibitor, partial curve]"
12,Cc1ccc2[nH]c(=O)c(C(c3nnnn3CCc3ccccc3)N3CCOCC3)cc2c1 (stereo not drawn),inactive
13,O=C(NCCOc1cccc(Cl)c1Cl)c1cc(-n2cnnc2)ccc1Cl,inactive
14,CCOc1ncccc1C(=O)N1CCN(c2cc(Cl)ccc2C)CC1,"inconclusive: 22.4 µM [inhibitor, single point]"
15,CCN=c1scc(C)n1/N=C/c1cc(Br)c(O)c(OC)c1,"inconclusive: 12.6 µM [inhibitor, partial curve]"
16,Cc1cc2c([nH]c3ccccc32)c2c1OC(C)(C)C=C2,"inconclusive: 17.8 µM [inhibitor, partial curve]"
17,O=C(CC12CC3CC(CC(C3)C1)C2)N/N=C\c1ccc[nH]1,inactive
18,C(=N\N1CCN(C2c3ccccc3-c3ccccc32)CC1)/c1ccncc1,"inconclusive: 25.1 µM [inhibitor, partial curve, poor fit]"
19,CCC(C)NC(=O)CCCc1nnc2n(CC(C)C)c(=O)c3sccc3n12 (stereo not drawn),inactive
20,O=C(Oc1ccc(/C=N/Nc2ccccc2)cc1)c1ccccc1,"inconclusive: 10 µM [inhibitor, partial curve]"
21,CN(C)c1ccc(NC(=O)CSc2n[nH]c(-c3ccco3)n2)cc1,"inconclusive: 12.6 µM [inhibitor, partial curve]"
22,Cc1cc(Br)c2c(c1)/C(=C/C(=O)c1cccs1)C(=O)N2,"inconclusive: 22.4 µM [inhibitor, single point]"
23,COc1ccc(C)cc1NC(=O)c1ccc(-c2ccc(C(C)=O)cc2)o1,"inconclusive: 2.82 µM [inhibitor, full curve]"
24,c1ccc(C2Oc3ccccc3C3CC(c4cccs4)=NN32)cc1 (stereo not drawn),"inconclusive: 35.5 µM [inhibitor, single point]"
25,O=C(COc1ccccc1)N1CCN=C1SCc1cccnc1,"inconclusive: 35.5 µM [inhibitor, partial curve]"

row,Compound,Potency
1,Cc1ccc(S(=O)(=O)CCSc2cccc(C(=O)Nc3ccccc3C(=O)O)c2)cc1,inactive
2,CCC(C)(C)NC(=O)C(c1ccc(C)cc1)N(Cc1ccco1)C(=O)CCC(=O)Nc1nccs1 (stereo not drawn),inactive
3,Cc1ccc(Nc2c(C(C)C)c(C)c(C#N)c3nc4ccccc4n23)cc1,"inconclusive: 10 µM [inhibitor, partial curve]"
4,CS(=O)(=O)N(CC(=O)NCCSC1CCCCC1)c1ccc2c(c1)OCO2,inactive
5,Cc1c(O)ccoc1=O,inactive
6,CN(C)C(=O)CSc1nnc([C@H](Cc2ccccc2)NC(=O)OC(C)(C)C)o1,inactive
7,NS(=O)(=O)c1ccc(NC(=O)Nc2ccccc2)cc1,inactive
8,COc1cccc(-c2nnc3sc(-c4ccccc4)nn23)c1,"inconclusive: 17.8 µM [inhibitor, partial curve]"
9,O=C(CN1C(=O)CSc2ccc(S(=O)(=O)N3CCCC3)cc21)Nc1cccc(Cl)c1,inactive
10,CC1C2(C)OC(=N)C(C#N)(C(C)O2)C1(C#N)C#N (stereo not drawn),"inconclusive: 12.6 µM [inhibitor, partial curve]"
11,Cc1c(N=C2Nc3cccc4cccc2c34)c(=O)n(-c2ccccc2)n1C,"inconclusive: 15.8 µM [inhibitor, partial curve]"
12,CCn1ccnc1CN(C)C(=O)CCc1nnc(CCCc2ccccc2)o1,inactive
13,CCCCSc1nnc(-c2cc(Br)ccc2N)c(=O)[nH]1,"inconclusive: 39.8 µM [inhibitor, partial curve]"
14,O=[N+]([O-])c1cccc(/C=C2\CCC(/C=N/Nc3ccc4ccccc4n3)=C2N2CCOCC2)c1,"inconclusive: 2.24 µM [inhibitor, full curve]"
15,CCCc1cc(=O)oc2cc(C)c3c(-c4ccccc4)coc3c12,"inconclusive: 2.24 µM [inhibitor, partial curve]"
16,COc1ccc2[nH]c(C(=O)NCCc3ccccc3)cc2c1,"inconclusive: 22.4 µM [inhibitor, partial curve, poor fit]"
17,Cc1ccc(NC(=O)C(=O)C2C(=O)Nc3ccccc32)cc1 (stereo not drawn),"inconclusive: 5.01 µM [inhibitor, partial curve]"
18,CCOC(=O)CN1CC23C=CC(O2)C(C(=O)NCc2ccc(F)cc2)C3C1=O (stereo not drawn),inactive
19,CCN(CC)S(=O)(=O)c1ccc(N=NC2=C(O)CC(C)(C)CC2=O)cc1,inactive
20,CCCCCn1c(N2CCN(c3cccc(Cl)c3)CC2)nc2c1c(=O)[nH]c(=O)n2C,"inconclusive: 11.2 µM [inhibitor, partial curve]"
21,COC(=O)CCCC[C@H]1SC[C@H]2NC(=O)N[C@]21O,"inconclusive: 28.2 µM [inhibitor, single point]"
22,COCCCNC(=O)c1nn(-c2ccc(C)cc2)nc1CO,inactive
23,S=C(Nc1ccc(Nc2ccccc2)cc1)Nc1ccccn1,inactive
24,CCOc1ccc(C2CC(=O)c3c([nH]c(C(=O)OCC4CCCCC4)c3C)C2)cc1 (stereo not drawn),inactive
25,Cc1ccc(S(=O)(=O)C(CNC(=O)C(=O)NCCc2ccccc2)c2cccs2)cc1 (stereo not drawn),inactive

row,Compound,Potency
1,O=c1ccc2cc3c4c(c2o1)CCCN4CCC3,"inconclusive: 3.55 µM [activator, full curve]"
2,CC1CCCC(C)N1c1nnc(NC(=O)c2cc(-c3ccc(Br)cc3)on2)s1 (stereo not drawn),"inconclusive: 11.2 µM [inhibitor, partial curve]"
3,Cc1cc(-c2n[nH]c(=S)n2/N=C/c2ccc(C)o2)n[nH]1,inactive
4,COc1ccc(N2CC(C(=O)N/N=C/c3c[nH]c4ccccc34)CC2=O)cc1 (stereo not drawn),"inconclusive: 17.8 µM [inhibitor, single point]"
5,CCOc1ccccc1NC(=O)CSc1nccn1-c1cccc(C)c1,"inconclusive: 12.6 µM [inhibitor, partial curve]"
6,COc1cc(C)ccc1OCCOCCOc1ccccc1Br,"inconclusive: 35.5 µM [inhibitor, single point]"
7,CC(=O)c1cccc(NC(=S)NC(=O)c2ccccc2Cl)c1,inactive
8,CCN1CCN(C(c2ccc(SC)cc2)c2c(O)cc(C)n(CCOC)c2=O)CC1 (stereo not drawn),inactive
9,c1ccc2sc(N3CCOCC3)nc2c1,inactive
10,CN(C)c1ccc(-c2noc(C3CCN(S(=O)(=O)c4cccc(C(=O)O)c4)CC3)n2)cc1,"inconclusive: 11.2 µM [inhibitor, partial curve]"
11,COC(=O)C1=C(C)N(CCc2ccc(OC)c(OC)c2)C(=O)C1,"inconclusive: 28.2 µM [inhibitor, single point]"
12,COc1ccc(Cl)cc1NC(=O)c1c(NCc2cccnc2)sc2c1CCC(C)C2 (stereo not drawn),"inconclusive: 17.8 µM [inhibitor, partial curve]"
13,CC1CCCCN1CCCNC(=O)CN1C(=O)c2cccnc2Oc2ccccc21 (stereo not drawn),inactive
14,CCCC(=O)N1CCN(c2ccc(NC(=O)c3cc4ccccc4o3)cc2Cl)CC1,"inconclusive: 8.91 µM [inhibitor, partial curve]"
15,COc1ccc(NC(=O)/C=C/c2ccc(Br)o2)cn1,"inconclusive: 28.2 µM [inhibitor, partial curve]"
16,CCCOc1ccc(CSc2nc3ccccc3[nH]2)cc1,"inconclusive: 25.1 µM [inhibitor, single point]"
17,Nc1c(NCCC2=CCCCC2)c(=O)[nH]c(=O)n1Cc1ccccc1,"inconclusive: 31.6 µM [inhibitor, single point]"
18,CC(=O)c1ccc(N2CCN(C(=O)Nc3ccc(F)cc3)CC2)cc1,inactive
19,CCc1n[nH]c(=S)n1/N=C/c1cc(OC)cc([N+](=O)[O-])c1O,active: 5.01 µM
20,CN(C)c1ccc(/C=N\NC(=O)CC#N)cc1,"inconclusive: 14.1 µM [inhibitor, partial curve]"
21,O=c1oc(-c2ccccc2Cl)nc2ccsc12,"inconclusive: 7.08 µM [inhibitor, single point]"
22,Cn1c(O)c(N=NC(=O)c2cccc(S(=O)(=O)N3CCCCC3)c2)c2ccccc21,"inconclusive: 14.1 µM [inhibitor, partial curve]"
23,Cc1ccc(C)c(/C=N/n2cc(-c3ccccc3)[nH]c2=S)c1,"inconclusive: 12.6 µM [inhibitor, partial curve]"
